# From paper PMC5515408
# Some of the results follow. At the low end of the ranking the order means little.
# Tested on: MYC (p64) + MAX (p21), in MYC:MAX
# Assay: protein-binding microarray (anti-MAX antibody)
# Conditions: PBM: 15 mM Tris-HCl pH 7.5, 100 mM KCl, 0.075% NP40, 7.5 mM beta-mercaptoethanol, 375 ng/ul BSA, 8 ng/ul poly(dA-dT):(dA-dT), 550 ng complex, 60 min, room …; high values mean tight binding; double strand, one strand shown; sequences stand for … in CCGGC…TTAATAGCTAAGATTACTATATCGACG
row,Sequence,binding signal (log2 normalized fluorescence)
1,TTGAACGTGGTA,0.497
2,TGATAGAGGGTA,-0.0227
3,TGATAATTGGTA,-0.103
4,TGACATACAGTA,0.302
5,TGAGAAGGTGTA,0.0344
6,TGACTCCGGGTA,0.105
7,TGAGTTAAAGTA,-0.056
8,TGCAGCGTGGTA,0.423
9,TGAGCAATTGTA,-0.0816
10,TGAATTGCAGTA,0.275
11,TGACAGGTGGTA,0.417
12,TGACACGTCCGA,0.416
13,TGAGAAATAGTA,-0.305
14,TGAGGCGCTGTA,0.143
15,TGAGCTGTCGTA,-0.0563
16,TCACCCGTGATA,0.265
17,TGATGTATTGTA,-0.0146
18,TGAGTTGGCGTA,-0.0561
19,TGAGTCCGTGTA,0.118
20,TGAACAGAGGTA,-0.00418
21,TAAAACGTGTTA,0.668
22,TGAACTGGGGTA,0.29
23,TGAAAGACTGTA,0.191
24,TGAGATCAGGTA,0.0988
25,TGAGGCAAAGTA,0.142

row,Sequence,binding signal (log2 normalized fluorescence)
1,AGACAAGTGCTA,0.353
2,TGACACGCGGTG,0.585
3,TGATTGGGGGTA,0.502
4,TGAAGTGAAGTA,-0.142
5,TGAATAACTGTA,-0.0712
6,TGAGCCGTTGTA,-0.0374
7,TGAGGTCATGTA,0.00694
8,TGAATGCAGGTA,0.138
9,TGAGCTTGCGTA,0.165
10,TGAATACTGGTA,0.0621
11,TGATACCCAGTA,0.0519
12,TGCCAAGTGGTG,0.205
13,CGGCACGTGGTA,0.723
14,TGACGCGTCGTA,0.46
15,TGAAATGTGATA,0.419
16,TGAGTTGTGGTA,0.0821
17,TGAGACGTAGTA,-0.176
18,TGATAGTGGGTA,-0.0434
19,TGATACGAGGTA,0.0752
20,TGATCGGTCGTA,-0.276
21,TGATCGGGGGTA,0.737
22,CAACACGTGGTA,0.937
23,TGACACGTACCA,0.476
24,TGACACGCGAGA,0.438
25,TGAATTTCCGTA,-0.0611

row,Sequence,binding signal (log2 normalized fluorescence)
1,CGACACGTGGTA,1.07
2,TGAGGCTCCGTA,0.0148
3,TAACACGTGATA,0.646
4,TGATTCCTTGTA,0.02
5,GGCCACTTGGTA,0.115
6,TGACACATGGTT,0.817
7,TGATACCCTGTA,0.086
8,TGAGAGAGTGTA,0.119
9,GAAGCATTGCAT,0.288
10,TGATCAAAGGTA,-0.134
11,TGACATGGGGTA,0.427
12,CGACACTTGGTG,0.249
13,AGACATGTGGTG,0.734
14,TGATACAACGTA,0.133
15,TGAAGCGGTGTA,0.0582
16,TGAGACGGAGTA,-0.0188
17,TGAGAAGCGGTA,-0.0504
18,TGACTAGGGGTA,0.208
19,TGAATGCCTGTA,0.159
20,TGAGCATGCGTA,0.461
21,TGACGCGCCGTA,0.261
22,TGACAGTTCGTA,0.106
23,TGACTTAGGGTA,0.00404
24,TGACACCGTGTA,0.512
25,TGAACTCACGTA,0.179

row,Sequence,binding signal (log2 normalized fluorescence)
1,TGAAGTTCAGTA,0.0781
2,TGATTTCCGGTA,-0.167
3,TGACGAATCGTA,0.0673
4,TGATCAACTGTA,0.137
5,TGAACTTAAGTA,0.0282
6,TGATACACAGTA,0.0561
7,TGACCTTTAGTA,0.0418
8,TGATGTCGGGTA,0.0547
9,TGATCTGGTGTA,-0.0888
10,TGACACGGGGTA,0.48
11,TGAGGTAGCGTA,-0.0605
12,TGAACAGTTGTA,-0.0199
13,TGAATCGACGTA,0.0788
14,TCACCGGTGGTA,0.124
15,TGAAGTTGCGTA,-0.0361
16,TGACACGTGTGA,0.872
17,TGATGTCAAGTA,0.06
18,TGAGGCTAGGTA,-0.143
19,TGACGTGACGTA,-0.0134
20,TGATGGTGGGTA,0.165
21,TGAAACGGGGTT,0.189
22,TGGCCCGTGGTA,0.26
23,TGAAGATATGTA,-0.115
24,TGATGAGCCGTA,-0.152
25,TGAGTACGCGTA,0.244

row,Sequence,binding signal (log2 normalized fluorescence)
1,TGACTCCGAGTA,-0.169
2,TGACGTCAGGTA,0.293
3,TGAGCGTCAGTA,0.123
4,TGATCATGAGTA,0.18
5,TGACCGGTTGTA,-0.00848
6,TGAGTACCCGTA,-0.0297
7,TGATTGAGGGTA,-0.242
8,TGATAAGTAGTA,-0.156
9,TGAGGTAGTGTA,-0.00485
10,TGATTCTCAGTA,-0.114
11,TGAGCAAATGTA,0.148
12,TGACCGCACGTA,0.325
13,TGAATAGGAGTA,-0.0183
14,TGAGAATATGTA,-0.0932
15,TGAAAGTAGGTA,-0.0375
16,TGAACTCGCGTA,0.276
17,TGAAACTAGGTA,0.0149
18,TGAGACTCAGTA,-0.0192
19,TGACGTCGAGTA,0.0982
20,TGAGAGACTGTA,0.0278
21,TGAGTGCCAGTA,0.0258
22,TGATGTCTTGTA,0.0707
23,TGAGCAGGGGTA,0.291
24,TAATACGTGGTG,0.417
25,TGACGTGGGGTA,0.437

row,Sequence,binding signal (log2 normalized fluorescence)
1,TGAAAATAAGTA,0.0845
2,TGACGGCGCGTA,0.31
3,TTCTACGAAGGA,-0.0193
4,TGAATTTTGGTA,-0.174
5,TGACTGCTCGTA,0.235
6,TGACACGTCGTT,0.391
7,TGACACAGGGTA,0.328
8,TGATTTCTTGTA,-0.0269
9,TGAGGTGCAGTA,-0.0297
10,TGATCACTTGTA,0.124
11,TGAAGTCAGGTA,0.179
12,TGAGGGCAAGTA,0.0193
13,TGGCACGGGGTA,0.559
14,TGAAGTTTAGTA,-0.00682
15,TGATGGTTAGTA,0.0867
16,TGACACACAGTA,0.471
17,TGACCAAAGGTA,0.0357
18,TGAACGCTCGTA,0.275
19,TGAGCGGGTGTA,0.195
20,TGAGCTTCCGTA,0.0481
21,TGACAATAAGTA,0.0834
22,AGACACGCGGTC,0.8
23,TGATTAACTGTA,0.0149
24,TGAGCTTACGTA,-0.218
25,TGAAGGTTAGTA,0.0121

row,Sequence,binding signal (log2 normalized fluorescence)
1,TGAAGCGCCGTA,0.0437
2,TGAATGGATGTA,0.315
3,TGACAGATGTTA,0.306
4,TGAACAGGTGTA,0.412
5,TGAAATGGAGTA,-0.0855
6,TGAGACTAAGTA,-0.139
7,TGACGGACCGTA,0.163
8,TGACAACTAGTA,0.025
9,TGATGCAAAGTA,0.107
10,TGAGAGAAAGTA,-0.0754
11,TGAAACATGGTA,0.426
12,TGAGCCATGGTA,0.0564
13,TGAAGTGGAGTA,0.0961
14,TGACAGACTGTA,0.158
15,TGACCGGACGTA,-0.023
16,GGGCACGTGGGA,0.986
17,TGAGTGCACGTA,0.34
18,TGAGTATTGGTA,-0.27
19,TGAGCACCAGTA,0.058
20,TGAATGATCGTA,0.201
21,TGAAGACATGTA,0.36
22,TGAAGTACAGTA,0.0509
23,CAACACGTTGTA,0.669
24,TGATATAATGTA,0.0653
25,TGATACGTTGTA,0.177

row,Sequence,binding signal (log2 normalized fluorescence)
1,CGATACGTGGAA,0.275
2,TGATACTCGGTA,-0.00168
3,TGATCATCGGTA,-0.054
4,TGACCTCGTGTA,0.666
5,TGACCCTCCGTA,-0.0191
6,TGACGGACGGTA,-0.132
7,TGATTGCTGGTA,0.00382
8,TGAGCTCCAGTA,-0.0291
9,TGATTTGGAGTA,-0.0299
10,TGACCCCCCGTA,0.256
11,TGACTCCCCGTA,0.234
12,TGATCGTCTGTA,0.0551
13,TGAGGGAGCGTA,0.0307
14,TCATACGTGGTA,0.558
15,TGAGCCCAAGTA,-0.266
16,TGAAGCCGAGTA,-0.000556
17,TGACTTACGGTA,0.094
18,TGATGTGTGGTA,0.187
19,TGAAACGTGGTC,0.74
20,TGAGTCGTGGTA,0.242
21,TGACACCTGTTA,0.45
22,TGAAAATTCGTA,-0.18
23,TGAGTGGCAGTA,0.306
24,TGACGTAAGGTA,0.0847
25,TGAGCCCCAGTA,-0.146

row,Sequence,binding signal (log2 normalized fluorescence)
1,TGAGATCCCGTA,0.0061
2,TGACTTATTGTA,-0.0591
3,TGAGAAAATGTA,-0.0528
4,TCTCACGTGGTC,0.836
5,TGAAGTGCTGTA,0.169
6,TGAGCATTGGTA,0.143
7,TACAGTCATGGA,0.329
8,TGAGAAAAAGTA,-0.225
9,TGTCACCTGGTC,0.45
10,TGTCTCGTGGTA,0.727
11,TGACTTTATGTA,0.138
12,TGATGACCCGTA,0.135
13,TGACAATTAGTA,0.025
14,TGAGCAGGCGTA,0.044
15,AGACACTTGGTA,0.421
16,TGAAATCCGGTA,-0.123
17,CGACACGCGGTT,0.82
18,TGAGAACAAGTA,0.121
19,TGAGACCAAGTA,0.094
20,TGACGTGGCGTA,0.38
21,TGACACGTCGTA,0.472
22,TGATTCTTCGTA,-0.0989
23,TGAGGATCAGTA,-0.0154
24,TGAAATGTGTTA,0.596
25,TGATCTACCGTA,-0.069

row,Sequence,binding signal (log2 normalized fluorescence)
1,TGATAGCATGTA,0.284
2,TGACAAAGCGTA,0.0954
3,TGAGATGACGTA,-0.00297
4,TGACTGATAGTA,0.00051
5,TGACCTACAGTA,0.193
6,TGAGCGCATGTA,0.53
7,TGATGCTATGTA,0.189
8,GAGCACGTGGTA,0.525
9,TTACACGATGTA,0.397
10,TGAGTAGCGGTA,-0.037
11,TGACACGTGAAA,0.734
12,TGACCACACGTA,0.463
13,TGAAGAGAAGTA,-0.00413
14,TGATGATTGGTA,-0.018
15,TGAGGCGACGTA,-0.0993
16,TGAGCCGCGGTA,0.0972
17,TGAGCGAGCGTA,0.0938
18,TGACAGGCCGTA,0.145
19,TGATGGTCGGTA,0.0761
20,TGACGTGTGGTA,0.252
21,TGACGACAGGTA,0.106
22,TGAGACGGTGTA,-0.0301
23,TGAACCAGGGTA,0.179
24,TTATACGTGGTA,0.309
25,TGAAGATCGGTA,0.0447

row,Sequence,binding signal (log2 normalized fluorescence)
1,TGAGACTCCGTA,0.0725
2,TGACCGTACGTA,0.139
3,TGATCTCCGGTA,-0.218
4,TGAACTAGTGTA,0.111
5,TGATTAGACGTA,-0.185
6,TGAGTACGGGTA,-0.0173
7,TGAATGATGGTA,0.341
8,TGAGAACTGGTA,-0.101
9,TGAGGCGCAGTA,0.0163
10,TGAGGATGCGTA,-0.135
11,TGATGTGCTGTA,0.323
12,TGAAAGGCCGTA,0.17
13,TGATAATTAGTA,-0.375
14,TGACATATGGTA,0.45
15,TGACTGGGCGTA,0.0251
16,TGACTAACCGTA,0.146
17,TGACGAAAGGTA,-0.0829
18,TGAAGCCGGGTA,-0.109
19,TGATGTTACGTA,0.135
20,TGACGGAACGTA,0.0765
21,TGAACGTAGGTA,0.12
22,TGAGGGAGTGTA,0.101
23,TGAGACGTGGGA,0.342
24,CGACTAGTGGTA,0.0718
25,TGACGAATGGTA,0.192
